{"source": "patent US8758763B2", "about": "“Archaeal polar lipid aggregates for administration to animals” (National Research Council of Canada, priority 2006, dated 2014)", "system": "BSA", "assay": "Anti-BSA antibody responses (ELISA) after i.n. immunization", "conditions": "i.n. at 0, 7, 21 d, 10 μg BSA/immunization; 28 and 204 d", "data": [{"substance": "BSA/PBS: BSA alone in PBS, no adjuvant", "values": [{"measurement": "anti-BSA fecal IgA, serum IgA and serum IgG responses", "result": "little to no"}]}]}
